Values marked as one replicate rest on one cluster of the flow cell; about a third of the high ones do not repeat.
These sequences were tested on ATP (assay: switch fluorescence ratio, 500 uM ATP over buffer (Cy3 cluster intensity, sum of 5 cycles each) (fold (ratio)); higher = stronger signal-on switching upon ATP binding; sequences stand for … in TCGTCGGCAGCGTCAGATGTGTATAAGAGACAGTTTTTTTTTTTTTTTTTTTTTTTTT…TC). Details: aptamer strand: ATP DNA aptamer (quencher-CACCTGGGGGAGTATTGCGGAGGAAGG + anchor), 100 nM annealed; ATP concentration: 500 uM; one replicate.
In short: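 Exposure to 500 uM ATP lasted 15 min at 22 °C before imaging, and a selection-buffer image was taken beforehand, for Cy3-labelled switching-strand clusters on a modified Illumina MiSeq flow-cell annealed to 100 nM quencher-labelled ATP aptamer. Five buffer/ATP cycles were run with NaOH stripping and re-annealing between them. The fluorescence ratio per cluster is summed target-cycle over summed buffer-cycle Cy3 intensity, averaged per switch-domain sequence. Clusters outside 100-1000 RFU were excluded.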
With AAAGCCGAA the switch fluorescence ratio was 0.986. GGGTGTCGAT was tested, and the switch fluorescence ratio was 0.983. CCCTGGTGGC was tested, and the switch fluorescence ratio was 1.88. With ATCCCAGTGA the switch fluorescence ratio was 1.28. Work on TGGCAGGCCT yielded a switch fluorescence ratio of 0.997. Work on CGATCCCGTT yielded a switch fluorescence ratio of 0.996. With CCAATAGTAA the switch fluorescence ratio was 1.2. In the case of AAGGAAGC, the switch fluorescence ratio is reported as 1. For GTAGGTTTCC, the switch fluorescence ratio was 0.981. With AGAAAGCACC the switch fluorescence ratio was 1.15. Sequence CGGACAGAT has a switch fluorescence ratio of 1.06. TGGGGAGATC was tested, and the switch fluorescence ratio was 1.1. For ACCTTTGAAC, the switch fluorescence ratio was 1.05. With AGTCGGTCTG the switch fluorescence ratio was 0.953. For ATACGCAGGA, the switch fluorescence ratio was 0.987. Sequence GCTCTTTTCA has a switch fluorescence ratio of 0.998. In the case of TTCGGAGTGG, the switch fluorescence ratio is reported as 1.02. Work on ATAGTCGTG yielded a switch fluorescence ratio of 0.989. With AGGTAATGA the switch fluorescence ratio was 0.992. With GCGTAACCGG the switch fluorescence ratio was 1.01. TCCGATTTAG showed a switch fluorescence ratio of 1.15. For GATATAGATG, the switch fluorescence ratio was 1. For GTTTCCCTTT, the switch fluorescence ratio was 1.03. Work on AACTGGTGGA yielded a switch fluorescence ratio of 1.05. CCTCAGCTAA showed a switch fluorescence ratio of 3.4. CGCCAGATAG showed a switch fluorescence ratio of 1.05. With CCTTTCCGAT the switch fluorescence ratio was 1.44. With TGCGCCCAAA the switch fluorescence ratio was 0.97. Sequence CGGCGTGACT has a switch fluorescence ratio of 0.975. With CCATGGCCTA the switch fluorescence ratio was 0.992. With GGCATGGGAG the switch fluorescence ratio was 0.974. Work on ATTCAATTGA yielded a switch fluorescence ratio of 0.954. In the case of AAGTATTTAA, the switch fluorescence ratio is reported as 0.978. With CACTCCATGG the switch fluorescence ratio was 1.01. CCGACTGTGG showed a switch fluorescence ratio of 0.999. GCTCTCTAT gave a switch fluorescence ratio of 1.04. ACTAGATTA showed a switch fluorescence ratio of 1.01. AGTCGACCGG showed a switch fluorescence ratio of 1.06. TGAGTAGTGT was tested, and the switch fluorescence ratio was 0.995. GGTTGTTCA showed a switch fluorescence ratio of 0.979. For AGTACACCTG, the switch fluorescence ratio was 1.08. Sequence GCGTAATTTG has a switch fluorescence ratio of 0.959. For AAGCACCGTC, the switch fluorescence ratio was 1.04. Work on CATGGTATGC yielded a switch fluorescence ratio of 1.02. In the case of CCATAAAGTT, the switch fluorescence ratio is reported as 1.03. TTTAATCGCG showed a switch fluorescence ratio of 0.934. For TCAAGCCTGT, the switch fluorescence ratio was 0.974. GGCAGACTCT was tested, and the switch fluorescence ratio was 1.3. For TCTTGTGCCG, the switch fluorescence ratio was 0.961. Sequence GCAATTGGGC has a switch fluorescence ratio of 1.15. In the case of CGTTCAACCC, the switch fluorescence ratio is reported as 1.05. GGGTGGTACG gave a switch fluorescence ratio of 0.978. For TAGTCTACAA, the switch fluorescence ratio was 1.07. TGATAGTGTT showed a switch fluorescence ratio of 0.953. Sequence TGGCTAACGA has a switch fluorescence ratio of 1.02. GGTCGTTGGG gave a switch fluorescence ratio of 0.995. CAGTATCGTT was tested, and the switch fluorescence ratio was 0.991. With TGCCCCAAAA the switch fluorescence ratio was 1.02. GGTTTGTTAG was tested, and the switch fluorescence ratio was 1.02. With ATGCGCACTG the switch fluorescence ratio was 1.03. TTTCCGCCTT was tested, and the switch fluorescence ratio was 1.2. GCCAGTAGGG gave a switch fluorescence ratio of 0.979. For GTCTTATACT, the switch fluorescence ratio was 1.01. With TGGTCGATTG the switch fluorescence ratio was 1.02. GTGAGTGAGC showed a switch fluorescence ratio of 1.05. In the case of CGTCCGGTTT, the switch fluorescence ratio is reported as 1.1. With GTGTTCTGAC the switch fluorescence ratio was 1.01. CGAGTAGG gave a switch fluorescence ratio of 1.02. With CGATTCCCGC the switch fluorescence ratio was 1.26. Sequence GATCGGGGA has a switch fluorescence ratio of 1. GAACCTAGGA was tested, and the switch fluorescence ratio was 0.99. For TAAGCGAGAT, the switch fluorescence ratio was 1.01. Work on GCCGCCGGG yielded a switch fluorescence ratio of 1.01. TCCGAGTCTG was tested, and the switch fluorescence ratio was 1.27. For GCCGAGTCGC, the switch fluorescence ratio was 0.995. For CGGGATATGC, the switch fluorescence ratio was 1.01. ATGAGCCAAG gave a switch fluorescence ratio of 1.02. Work on CTCGAAGGGA yielded a switch fluorescence ratio of 1.02. Work on TCAGGCGCGC yielded a switch fluorescence ratio of 1. TGCAGGATAG was tested, and the switch fluorescence ratio was 1.01. GTAATAAGTG gave a switch fluorescence ratio of 0.999. AGGCTAGAA was tested, and the switch fluorescence ratio was 0.985. For CAACTTTACG, the switch fluorescence ratio was 1.13. Sequence GTGGGATA has a switch fluorescence ratio of 0.99. Work on GACATTATTT yielded a switch fluorescence ratio of 0.994. For TTACATCCTT, the switch fluorescence ratio was 1.02. In the case of AGCACGTGGA, the switch fluorescence ratio is reported as 1.05. With AGCGAGTTCG the switch fluorescence ratio was 0.978. For TGATGCGT, the switch fluorescence ratio was 0.999. TCTCCTGTAA gave a switch fluorescence ratio of 2.56. For AGTGGATAA, the switch fluorescence ratio was 0.998. GAGCGTGGGC was tested, and the switch fluorescence ratio was 0.969. ATTTAAAGAC was tested, and the switch fluorescence ratio was 0.922. In the case of CGGACGGGG, the switch fluorescence ratio is reported as 1. ACGCCGTGGA gave a switch fluorescence ratio of 1.02. With AGGATATTAC the switch fluorescence ratio was 0.995. For ATAGGAAGAC, the switch fluorescence ratio was 1.18. For CCAACTGGCT, the switch fluorescence ratio was 1.02. CCAACGAGAA was tested, and the switch fluorescence ratio was 1.15. In the case of TTGAAATAAG, the switch fluorescence ratio is reported as 1.01. With TTGTGAAACG the switch fluorescence ratio was 0.995. Sequence ATGGATGTAA has a switch fluorescence ratio of 1.02. For GTAAGATTTT, the switch fluorescence ratio was 1.05. With AACGTGACTT the switch fluorescence ratio was 1.23. In the case of AGGGGAACTT, the switch fluorescence ratio is reported as 1.02. For GGCGACCTT, the switch fluorescence ratio was 1.12. In the case of GCCTTATTAT, the switch fluorescence ratio is reported as 1.02. GTTGTAAGCG was tested, and the switch fluorescence ratio was 1. CTGTCCATTC showed a switch fluorescence ratio of 1.04. CAAGCATTAT showed a switch fluorescence ratio of 1.47. GCACATGTTC gave a switch fluorescence ratio of 0.979. With TACCTCCGTC the switch fluorescence ratio was 2.06. GCCGATAAGT gave a switch fluorescence ratio of 0.994. Work on AAGAACAAGC yielded a switch fluorescence ratio of 1.02. With GCGCGACTGG the switch fluorescence ratio was 1.03. GTGTATATAA was tested, and the switch fluorescence ratio was 0.942. CAGGTAATGT was tested, and the switch fluorescence ratio was 0.987. TCTCTTAT showed a switch fluorescence ratio of 1. GCAGCCCGTG gave a switch fluorescence ratio of 0.999. Sequence TGTATTATTT has a switch fluorescence ratio of 1.02. ACGATGCCCA was tested, and the switch fluorescence ratio was 1.05. GCCAGACGCC gave a switch fluorescence ratio of 1.1. With AACAATGGCT the switch fluorescence ratio was 0.999. AAATCCCC showed a switch fluorescence ratio of 1.05. In the case of CGAAGTTACT, the switch fluorescence ratio is reported as 1.04. With CGTATAGAAG the switch fluorescence ratio was 1.06. With CATGGTACTT the switch fluorescence ratio was 1.01. In the case of TGCTAGAAGG, the switch fluorescence ratio is reported as 0.978. ACCTTGGTAG gave a switch fluorescence ratio of 0.959. CCAGCAGACC was tested, and the switch fluorescence ratio was 3.43. Work on GCCACCCTGC yielded a switch fluorescence ratio of 1.05. GAACTTGGAG gave a switch fluorescence ratio of 1.03. CGATTACCTA was tested, and the switch fluorescence ratio was 1.04. In the case of CGACAAAGCG, the switch fluorescence ratio is reported as 1.01. CGCTTACGGA gave a switch fluorescence ratio of 1.16. For ACTTTCAAAG, the switch fluorescence ratio was 0.994. For CCTGGGTAGT, the switch fluorescence ratio was 1. Work on TAGCTCAGGT yielded a switch fluorescence ratio of 1.07. GGCGGAAGCT was tested, and the switch fluorescence ratio was 1.02. For CCCGGTTTAC, the switch fluorescence ratio was 1.65. Sequence AACTCTTTTT has a switch fluorescence ratio of 1.02. In the case of AGAAGCCCAT, the switch fluorescence ratio is reported as 1.04. AGTAGGCCTC was tested, and the switch fluorescence ratio was 0.97. CCCCGTCTTT was tested, and the switch fluorescence ratio was 1.08. ATAGCAACAG gave a switch fluorescence ratio of 1.17. CGCTACGTAC was tested, and the switch fluorescence ratio was 2.03. With TTCCCAGCAT the switch fluorescence ratio was 1.23. Work on TTGGTGGG yielded a switch fluorescence ratio of 0.992. With CGCGGAGCAA the switch fluorescence ratio was 6. Work on TCGAAAGGCC yielded a switch fluorescence ratio of 0.953. For CGTTGTGCCA, the switch fluorescence ratio was 0.965. In the case of AGGCTGATTA, the switch fluorescence ratio is reported as 1. Sequence TAACTTGGAC has a switch fluorescence ratio of 1.01. For CTGAGGAGAT, the switch fluorescence ratio was 1.03. In the case of ATATTAACGT, the switch fluorescence ratio is reported as 0.974. In the case of CTGCACACAC, the switch fluorescence ratio is reported as 2.89. For ACGACAGGGT, the switch fluorescence ratio was 1.05. Sequence CTTGTTCTTG has a switch fluorescence ratio of 0.985.
